The values below come from article PMC7819943, “Rice protein-binding microarrays: a tool to detect cis-acting elements near promoter regions in rice”.

The list shows a part of the results.

The assay deals with T1, OsWOX13 (Oryza sativa, UniProt Q5QMM3 1-267).
T1 sequence: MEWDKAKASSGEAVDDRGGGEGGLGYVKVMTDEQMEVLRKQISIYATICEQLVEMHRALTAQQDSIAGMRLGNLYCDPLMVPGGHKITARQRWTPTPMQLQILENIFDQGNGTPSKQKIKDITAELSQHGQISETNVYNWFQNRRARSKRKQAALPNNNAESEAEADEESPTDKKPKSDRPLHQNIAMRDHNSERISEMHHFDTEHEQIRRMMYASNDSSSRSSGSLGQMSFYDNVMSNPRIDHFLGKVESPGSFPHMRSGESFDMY
Put plainly: protein-binding microarray (RPBM); PBS, 2% BSA, 51.3 ng/ul salmon testes DNA, 50 uM zinc acetate, 200 nM TF, 25 C, 1 h; high values mean tight binding. The conditions noted are these: protein: recombinant; tags: N-terminal polyhistidine and DsRed monomer fusion (pET32a); label: CyDye5-dUTP incorporated in the synthesized complementary strand; 3' TTTTT single-stranded linker to array surface; dsDNA, one strand shown. The procedure, abridged: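 Transcription factors, each fused N-terminally to a polyhistidine tag and DsRed, were expressed in E. coli BL21-CodonPlus and purified on Ni–NTA. A custom Agilent array was made double-stranded by primer extension with Cy5-dUTP and blocked with 2% BSA. It was incubated with 200 nM protein in PBS, 2% BSA, salmon testes DNA and 50 µM zinc acetate at 25 °C for 1 h, then washed. The binding signal is per-feature fluorescence intensity (arbitrary units) read on an Axon 4000B scanner.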
As for “AAGCTAAATTTAGGAGTTGGAACTCTATCAAACAGGCCTTCGGAGTCACCTAGTGCAG”, the binding signal was 4340 fluorescence intensity (a.u.).

Consider “ACATTTTATTCCAATCATTGCTCTTTATGTTATCAATCTTCGGAGTCACCTAGTGCAG”, for which the binding signal was 13600 fluorescence intensity (a.u.).

For the sequence “ACCCAGATTGAGGCCCATTCAAATCAGGCCTGAATTACATCGGAGTCACCTAGTGCAG”, the binding signal was 17800 fluorescence intensity (a.u.).

Turning to “ACATATTTTAATTGTTATTTAGAGAAGAGTGTACAATGACCGGAGTCACCTAGTGCAG”, the binding signal was 3540 fluorescence intensity (a.u.).

With “GTTAAAATTGGAACGATGTGATGGAAAAGTTAGACGTTTACGGAGTCACCTAGTGCAG”, the binding signal is 7780 fluorescence intensity (a.u.).

As to “CCAGACAGGATATTTCCAATCGCTGACGAGGTGGGCCCCACGGAGTCACCTAGTGCAG”, the binding signal is 3610 fluorescence intensity (a.u.).

Consider “ATTGACTTCTTGATTGAACGTTCCATCTATAATCTGTTCTCGGAGTCACCTAGTGCAG”, for which the binding signal was 37100 fluorescence intensity (a.u.).

“ATGTTAGATAGGATGACTGGATGAGTTGGTTACTAAAAGCCGGAGTCACCTAGTGCAG”: the binding signal was 7270 fluorescence intensity (a.u.).

As to “AGAGATTGGCCTCCTGCATTGATTCAAGATTTCCAAATGGCGGAGTCACCTAGTGCAG”, the binding signal was 12500 fluorescence intensity (a.u.).

Take “TCACAAATTTTGTAAAATTTGTGTGGCATGGTTCAAATTCCGGAGTCACCTAGTGCAG”: the binding signal is 18900 fluorescence intensity (a.u.).

“CTGGATTACAAATTAGTGCAGGGAAACAGGTACCACTTGTCGGAGTCACCTAGTGCAG”: the binding signal is 21400 fluorescence intensity (a.u.).

Turning to “TGGAGAGTTTTGATTGGTTGGGAAGAGAATGTTGATAGAGCGGAGTCACCTAGTGCAG”, the binding signal was 20200 fluorescence intensity (a.u.).

Consider “TCGTTAAATGGTGTTTATATCTACCCTATAGTTAAACAAACGGAGTCACCTAGTGCAG”, for which the binding signal was 3860 fluorescence intensity (a.u.).

For “CACTGATCAGTGAAATCATTATTCCACACGCTCATGCTACCGGAGTCACCTAGTGCAG”, the binding signal was 4400 fluorescence intensity (a.u.).

With “TAATAATAAATTTACCGATCTGCCCTTGCTTGCGGCTTTTCGGAGTCACCTAGTGCAG”, the binding signal is 4570 fluorescence intensity (a.u.).

Regarding “TTAAATTAGCTTAATTAGATAGCTGCGACTGACCTGGACACGGAGTCACCTAGTGCAG”, the binding signal is 51700 fluorescence intensity (a.u.).

Turning to “GTAATTAACGTGTACTAATGTAATTTGCCACACATCCTGGCGGAGTCACCTAGTGCAG”, the binding signal is 24200 fluorescence intensity (a.u.).

With “TCCCTAAATTTTGCTTATTTTCTTGTATATACTGTTTACACGGAGTCACCTAGTGCAG”, the binding signal is 5720 fluorescence intensity (a.u.).

Consider “GGCGATTGAATTAATTTTAATAATCAATGATACTAGTAGTCGGAGTCACCTAGTGCAG”, for which the binding signal is 45200 fluorescence intensity (a.u.).

In the case of “TTAATTTGCTGACATATCTCTTCCGTTCTTGAATATTGATCGGAGTCACCTAGTGCAG”, the binding signal is 3770 fluorescence intensity (a.u.).

As to “ACCTGACAGATATCACCCGATACCTATGTGGATACTAGGCCGGAGTCACCTAGTGCAG”, the binding signal is 15900 fluorescence intensity (a.u.).

In the case of “TGCGTGATTGTTGGGATTATTTTATTAATTGATCCAATGGCGGAGTCACCTAGTGCAG”, the binding signal was 57200 fluorescence intensity (a.u.).

Take “TTTGATGACCTTTTGCTTGATCTCGAAATTAAAATTCAAGCGGAGTCACCTAGTGCAG”: the binding signal is 3780 fluorescence intensity (a.u.).

For “TTCAAGGCATTATTACTTAATTTGTCCACAAAATTGAAGACGGAGTCACCTAGTGCAG”, the binding signal was 3410 fluorescence intensity (a.u.).

On to “AAGTCGTTACTCGTTAATTGGCAGCAGAAGCGAAGGATATCGGAGTCACCTAGTGCAG”, for which the binding signal is 15400 fluorescence intensity (a.u.).

Regarding “TGTGGCAATTAAGAATTTGTCACTCGCTGTTTATAACATGCGGAGTCACCTAGTGCAG”, the binding signal is 3510 fluorescence intensity (a.u.).

In the case of “GTTGACGTGGATATATATCTGATTGATCGTACAGCCAACTCGGAGTCACCTAGTGCAG”, the binding signal is 23500 fluorescence intensity (a.u.).

Take “CAGCTAGGATAATTGAGAGTTGACACGTAAGGCAGCTTCGCGGAGTCACCTAGTGCAG”: the binding signal was 21500 fluorescence intensity (a.u.).

Consider “CGAGGAGCGGGGTGGGGTCGGAGGCGGGGAGGGAGGACGCCGGAGTCACCTAGTGCAG”, for which the binding signal is 3730 fluorescence intensity (a.u.).

As for “AAAATATATTGATAATTGCTTTGTAATTATCGCAGCAAAGCGGAGTCACCTAGTGCAG”, the binding signal is 35600 fluorescence intensity (a.u.).

For “GGATGGAGTGAGTATGATTTGCCCATTAATCACAGACTCGCGGAGTCACCTAGTGCAG”, the binding signal was 5040 fluorescence intensity (a.u.).

For “AAAGATTGAAAGAATAGTACTAGTTGAGGAGTTTGCTGATCGGAGTCACCTAGTGCAG”, the binding signal is 22000 fluorescence intensity (a.u.).

On to “TTAATTATTAAATTCTTTTCACTGTCTACTACTTGTTCCGCGGAGTCACCTAGTGCAG”, for which the binding signal was 15300 fluorescence intensity (a.u.).

Take “AAAATTCAAATTTTATATAGTTCAATCAAACTCGGATAGACGGAGTCACCTAGTGCAG”: the binding signal was 4280 fluorescence intensity (a.u.).

As to “TCAATATCTGATAATTATGTAGTGCTTATGGTTGATTAGCCGGAGTCACCTAGTGCAG”, the binding signal was 4380 fluorescence intensity (a.u.).

In the case of “ATATATTTCATCAATTTGTTTACTTTACATATGGGAGAGGCGGAGTCACCTAGTGCAG”, the binding signal is 3780 fluorescence intensity (a.u.).

In the case of “AGAAAACCATTATATTATTAATTGAGTTTTAATTTATTTCCGGAGTCACCTAGTGCAG”, the binding signal was 5180 fluorescence intensity (a.u.).

With “GATAAATTTAAGCCTTGTTTGTATTTGTCTGCATGAAGACCGGAGTCACCTAGTGCAG”, the binding signal is 7120 fluorescence intensity (a.u.).

In the case of “TTGGCCTTCAATCATTGACACTTGGACAGAACAAATCAATCGGAGTCACCTAGTGCAG”, the binding signal was 26000 fluorescence intensity (a.u.).

Turning to “ACTTAATTTGGCTCTTTAGGCCTTTACCAACGTGTCACTCCGGAGTCACCTAGTGCAG”, the binding signal is 8310 fluorescence intensity (a.u.).

Turning to “GTTGACGATTAAAACAAACCAGTGTTTGACTTTCTTACTGCGGAGTCACCTAGTGCAG”, the binding signal was 3160 fluorescence intensity (a.u.).

Turning to “ATTGGCTATTAGATTGACTATAGATGAATTGGAGCTAGTACGGAGTCACCTAGTGCAG”, the binding signal is 13600 fluorescence intensity (a.u.).
